84 compounds from ChEMBL document CHEMBL5308541, “MAIP: An Open-Source Tool to Enrich High-Throughput Screening Output and Identify Novel, Druglike Molecules with Antimalarial Activity” (ACS Med Chem Lett, 2023) can be followed below.

The campaign covered roughly 150,000 compounds. About 540 (0.36%) showed an effect of 50% or more. Some of the results follow.

This assay concerns Plasmodium falciparum. Kind of assay: Primary screen in NF54 nanoGlo assay, in single point, at 2uM, 72h; a lower Z score goes with more inhibition. It counts as functional, Erythrocyte. The settings on record: timepoint 72 hour.
The term % Inhibition denotes the change of the read-out against control, counted positive when it falls. Consider `C#CCOc1cc(F)ccc1NC(=O)N[C@@](C)(CO)C1CC1`, for which the “% Inhibition” value is given as -1% and the Z score amounted to 0.16.
Taken in the same sequence, the figures for `Nc1nc(NC[C@H]2CCN(c3ccc(Cl)cc3)C2)nc2ccccc12` were 5% and -0.81.
Taken in the same sequence, the figures for `CN1CCN(c2nnnn2C[C@H]2CCOC2)Cc2cccnc21` were -11% and 2.32.
The matching figures for `CC1(C)CC(NC2CNCCC2O)CC(C)(C)N1` (stereo not drawn): 2% and -0.53.
Take `O=C1C[C@H](CNc2ncnc3cc[nH]c23)CN1C1CCCC1`: the “% Inhibition” value is given as 1% and the Z score is given as -0.23.
Take `Fc1ccc2c(c1)OCCC[C@@H]2NCCc1ccc2c[nH]nc2c1`: the “% Inhibition” value is recorded as -6% and the Z score worked out at 1.34.
For `COc1cccc(OC)c1S(=O)(=O)NCCN1CCCC(C)(C)C1`, the “% Inhibition” value is on record as -9% and the Z score turned out to be 1.55.
As to `CN(CC[C@H]1CCOC1)Cc1ccc2ccccc2n1`, the “% Inhibition” value was found to be 10% and the Z score was -2.25.
The matching figures for `CC(C)c1ccc(C2(O)CCC(N[C@@H](C)c3ccc(-c4cncnc4)cc3)CC2)cc1` (stereo partly drawn): 0% and -0.02.
Taken in the same sequence, the figures for `Cc1cncc(-c2cnc3c(cnn3C3CCN(C)CC3)c2)c1` were 2% and -0.36.
For the compound `O=C(CN1CCN(C(=O)Nc2ccc3[nH]ncc3c2)CC1)N1CCCC1`, the “% Inhibition” value came to 7% and the Z score is -1.28.
The matching figures for `COc1cc2nc(N3CCC(CN4CCN(C)CC4)CC3)cc(C)c2cc1OC`: -2% and 0.44.
The matching figures for `CCC[C@H](C)c1cc(NS(=O)(=O)c2ccc(C(=O)OC)cc2)[nH]n1`: -6% and 1.07.
Taken in the same sequence, the figures for `Cc1cc2nc(C(C)C)cc(NCCCN3CCC[C@H](O)C3)n2n1` were -4% and 0.71.
Consider `CCN(CC)C(=O)Cc1ccc(Nc2ncnc3[nH]ncc23)cc1`, for which the “% Inhibition” value is given as -2% and the Z score is reported as 0.39.
The matching figures for `Cc1ccc(-c2ccc3nnc(CNC(=O)c4cccc5[nH]ccc45)n3n2)cc1C`: -1% and 0.19.
Taken in the same sequence, the figures for `Cc1ccccc1Nc1c(C(F)(F)F)c(C(F)(F)C(F)(F)F)nc2c(C)cccc12` were -8% and 1.37.
For the compound `CN(CC1(O)CCCC1)S(=O)(=O)N1CCCCCC1`, the “% Inhibition” value is on record as -1% and the Z score is 0.17.
For `O=S(=O)(c1ccccc1NCCc1nc(-c2ccncc2)cs1)C(F)(F)F`, the “% Inhibition” value is listed as -9% and the Z score came out at 1.58.
The matching figures for `Fc1ccc(-c2ncnc3[nH]ccc23)c(Cl)c1`: 9% and -1.86.
The matching figures for `Cc1cnc(NC(=O)N2CC[C@H](CO)C2)nc1-c1ccccc1`: -4% and 0.83.
Taken in the same sequence, the figures for `CN1CCC(N(C)C[C@H](Nc2ncnc3ccccc23)c2ccccc2)CC1` were 98% and -17.15.
In the case of `C[C@H](Nc1nc(NC2CC2)nc2c1CCNCC2)c1nnc(N)s1`, the “% Inhibition” value is -4% and the Z score was found to be 0.64.
On to `Cn1c(-c2ccccc2)c([C@H](CN)c2ccccc2)c2ccccc21`, for which the “% Inhibition” value was -6% and the Z score was found to be 0.9.
Taken in the same sequence, the figures for `Cn1cncc1CN(CCO)C(=O)CCc1cccc(Cl)c1` were -4% and 0.77.
`O=C(c1cccc2[nH]ccc12)N1CCC(C2OCCC2Nc2ncccn2)CC1` (stereo not drawn): the “% Inhibition” value is reported as -9% and the Z score is given as 1.78.
The matching figures for `COc1cncc(N2CCN(CCN3CCC(C)CC3)CC2)n1`: -9% and 1.54.
Taken in the same sequence, the figures for `c1ccc(COc2ccc(Nc3[nH]cnc4ncnc3-4)cc2)cc1` were -1% and 0.2.
Taken in the same sequence, the figures for `COCCCn1ccc(Nc2nccc(Oc3ccc(F)cc3)n2)n1` were -14% and 2.36.
As to `CC1(C)O[C@H]2C[C@H](NC(=O)c3cc[nH]c(=O)c3)C[C@H]2O1`, the “% Inhibition” value is -4% and the Z score is 0.78.
Taken in the same sequence, the figures for `N#Cc1cnc(NC[C@H]2CCCN(C3CCCC3)C2)nc1N` were 1% and -0.2.
The matching figures for `CC1=NC(Nc2nc(C)c3ccccc3n2)=NC(C)(C)C1`: -10% and 1.72.
For the compound `C[C@@H](c1ccc(S(C)(=O)=O)cc1)N1CCC(Nc2ncnc3[nH]ccc23)CC1`, the “% Inhibition” value was -10% and the Z score was found to be 2.09.
The matching figures for `CN1CCCN(C(=O)CCC2CN(C3Cc4ccccc4C3)CCC2N2CCN(c3ccccc3F)CC2)CC1` (stereo not drawn): 10% and -1.74.
Taken in the same sequence, the figures for `Cc1cc(N2CCC[C@H](N3CCN(C(=O)c4ccccn4)CC3)C2=O)n(C)n1` were -4% and 0.77.
The matching figures for `COc1cc(OC)nc(N2CCC(N3CCC[C@H](C(=O)N4CCCC4)C3)CC2)n1`: -6% and 1.34.
Consider `CC[C@H](O)c1cc2n(n1)CCN(C(=O)CCS(=O)(=O)c1ccccc1)C2`, for which the “% Inhibition” value is given as -4% and the Z score is given as 0.62.
For `Oc1cccc2c1CC[C@@H]2NCc1ccc(OC(F)F)c(F)c1`, the “% Inhibition” value was 4% and the Z score is -0.65.
Regarding `CC(C)[C@H]1NC(=O)CCNc2cc(nc(NCc3cc(C4CC4)[nH]n3)n2)CCNC(=O)[C@H](C)NC1=O`, the “% Inhibition” value is -4% and the Z score worked out at 0.93.
`Cc1cc(Nc2nc3ccccc3s2)n(-c2ccccc2)n1`: the “% Inhibition” value is given as -2% and the Z score stood at 0.29.
In the case of `CC[C@H]1CCCCN1C(=O)CS(=O)(=O)c1cn(Cc2cccc(F)c2)c2ccccc12`, the “% Inhibition” value is reported as -12% and the Z score is on record as 1.83.
Taken in the same sequence, the figures for `CC(=O)N1CCC(CNC2CCC(C)(N3CCCC3)CC2)CC1` (stereo not drawn) were -10% and 1.74.
Regarding `c1nc(N2CCC[C@H](Nc3ccc4c(c3)OCCO4)C2)c2cc[nH]c2n1`, the “% Inhibition” value is -9% and the Z score came to 1.85.
With `O=C(c1ccnc2ccccc12)N1CCN(C2CCOCC2)CC1`, the “% Inhibition” value was -6% and the Z score worked out at 0.98.
The matching figures for `CCC1(NC(=O)c2cc(C)c3ccccc3n2)CCOCC1`: 21% and -4.08.
Turning to `O=S(=O)(c1ccccc1NC1CCN(Cc2ccccc2)CC1)C(F)(F)F`, the “% Inhibition” value is -6% and the Z score is 1.29.
Taken in the same sequence, the figures for `Cn1cc(C(=O)NC2CCC(N3CCNCC3)CC2)c([C@H]2CCCNC2)n1` (stereo partly drawn) were -11% and 1.63.
For the compound `COC[C@H]1CC[C@H]1NC(=O)c1c(C)ccc(Br)c1OC`, the “% Inhibition” value was -5% and the Z score amounted to 0.97.
Taken in the same sequence, the figures for `O=C(c1cc(-c2ccccn2)no1)N1CC2C3CCC(C3)C2C1` (stereo not drawn) were -4% and 0.8.
Taken in the same sequence, the figures for `OC[C@H](CNc1cc(-c2ccccc2)nc2ccnn12)Cc1ccsc1` were -1% and 0.11.
Taken in the same sequence, the figures for `O=C(Cn1cc(-c2ccc(F)cc2)cn1)N1C2CCC1CC(Oc1ccncc1)C2` (stereo not drawn) were 2% and -0.32.
As to `O[C@H]1CCCN(CCCn2cnc(-c3ccccc3)c2-c2cc(F)cc(F)c2)C1`, the “% Inhibition” value is -1% and the Z score is listed as 0.11.
The matching figures for `COc1ccc2nc(Nc3sc4c(c3-c3nc5ccccc5s3)CC[C@H](C)C4)sc2c1`: -14% and 2.14.
The matching figures for `Cc1nc(N2CC3COCC(C3)C2)cc(C(F)(F)F)n1`: 1% and -0.11.
As to `N[C@@H](CNc1nc2ccccc2[nH]1)C1CC1`, the “% Inhibition” value was -4% and the Z score came to 0.7.
With `CN(C)C[C@H]1CCN(c2ncnc3cc[nH]c23)C1`, the “% Inhibition” value is 13% and the Z score is reported as -2.62.
The matching figures for `O=C(O)c1ccc2c(c1)OCCN(Cc1cnn3c1CCC3)C2`: 4% and -0.58.
`Cc1ccnc(NCCNc2nc(C)nc3c2CCNCC3)c1`: the “% Inhibition” value is listed as -2% and the Z score is listed as 0.33.
The matching figures for `CN(C)C(=O)CN1CCC(Nc2cnc3ccccc3n2)C(O)C1` (stereo not drawn): -9% and 1.55.
Taken in the same sequence, the figures for `c1ccc(N2CC[C@H](N3CCN(c4nsc5ccccc45)CC3)C2)cc1` were -1% and 0.15.
Taken in the same sequence, the figures for `CN1C(=O)C2CCC1CN(C(=O)CCN1Cc3ccccc3C1=O)C2` (stereo not drawn) were -9% and 1.73.
For `O=C(Nc1ccccc1N1CCC(O)CC1)c1ccnc(OCC(F)F)c1`, the “% Inhibition” value is listed as -7% and the Z score is 1.37.
Regarding `COCc1noc(CCNC(=O)[C@@H]2CC3(CCNCC3)CN2)n1`, the “% Inhibition” value was -13% and the Z score worked out at 2.26.
Taken in the same sequence, the figures for `c1ccc2c(c1)CN(c1ncnc3[nH]ccc13)C[C@@H]1CCCN21` were -19% and 2.95.
As to `O=C(NCc1ccnc2ccccc12)N1CC(O)C(N2CCOCC2)C1` (stereo not drawn), the “% Inhibition” value is recorded as -3% and the Z score stood at 0.63.
On to `c1cnc(N[C@H]2CCN(CCOC3CCOCC3)C2)nc1`, for which the “% Inhibition” value is given as 9% and the Z score is -1.93.
Taken in the same sequence, the figures for `CC1NCCCC1Nc1c(C#N)cnc2ccc(Cl)cc12` (stereo not drawn) were -19% and 2.89.
Regarding `Cc1ccc(N2CCC(N3CCC4(CCC(=O)N4C)CC3)CC2)cc1`, the “% Inhibition” value was -2% and the Z score is 0.37.
In the case of `N#Cc1c[nH]c(C(=O)NCc2nncn2C2CCCCC2)c1`, the “% Inhibition” value was -2% and the Z score is 0.49.
Taken in the same sequence, the figures for `NC(=O)c1cc2c(OC[C@@H](O)COC3CN(C(c4ccccc4)c4ccccc4)C3)cccc2[nH]1` were -9% and 1.4.
Taken in the same sequence, the figures for `O=S1(=O)C[C@@H](c2ccccc2)CN1Cc1nnc2n1CCCC2` were -8% and 1.67.
On to `CN1CCC(Oc2ccc(NC(=O)c3cc(-c4cccn4C)[nH]n3)cc2)CC1`, for which the “% Inhibition” value was -8% and the Z score is 1.44.
For `Oc1ccc(OC(F)(F)F)cc1-c1ccc2nccn2n1`, the “% Inhibition” value was found to be 86% and the Z score was -17.13.
The matching figures for `O=C(CCNC(=O)c1ccccc1F)Nc1ccc(Oc2nnn[nH]2)cc1`: -12% and 1.76.
The matching figures for `COc1ccc([C@@H](O)CNCc2cnc(-c3ccccc3)s2)cc1`: -8% and 1.53.
As to `COc1ccc(CN2CCc3c([nH]c4ccccc34)[C@H]2c2ccccc2F)cc1O`, the “% Inhibition” value is -6% and the Z score was 1.06.
Taken in the same sequence, the figures for `CN(CC1(N2CCCCC2)CCCCC1)c1cc(N2CCC(O)CC2)ncn1` were 0% and 0.07.
On to `CN1CC[C@H](N2CCC(NC(=O)c3ccc4ccncc4c3)CC2)C1=O`, for which the “% Inhibition” value is -5% and the Z score stood at 0.91.
Turning to `CC(NS(C)(=O)=O)C(=O)N1CC2CCCC2C1` (stereo not drawn), the “% Inhibition” value is reported as -10% and the Z score was 2.1.
The matching figures for `COCC[C@H]1CCCCN1C(=O)c1cccc(-c2cnc3cccnn23)c1`: -5% and 1.05.
Taken in the same sequence, the figures for `Cc1cnn(CCNCC(=O)NCC(C)(C)N2CCOCC2)c1` were 1% and -0.11.
Turning to `CC(C)(C)c1cc(NCc2cc(O)c3ccccc3n2)ncn1`, the “% Inhibition” value is 7% and the Z score was -1.4.
Taken in the same sequence, the figures for `C[C@@H](CN(C)CCO)NC1CC(C)(C)NC(C)(C)C1` were -9% and 1.54.
Taken in the same sequence, the figures for `CNc1ccc(Nc2nn3cc(-c4cccnc4)nc3s2)cn1` were 6% and -1.03.
